Among all 310,000 compounds or so, about 14,000 (4.5%) showed an effect of 50% or more. The effect is printed as a negative number. This is one part of the list.
molecular target: human ether-à-go-go-related gene (hERG) potassium channel (human, UniProt Q12809); assay: primary screen, population patch clamp on CHO cells stably expressing hERG
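Note: peak tail current of the secondary pulse compared with the same well before compound.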

Chain of human ether-à-go-go-related gene (hERG) potassium channel (Q12809 whole entry, looked up): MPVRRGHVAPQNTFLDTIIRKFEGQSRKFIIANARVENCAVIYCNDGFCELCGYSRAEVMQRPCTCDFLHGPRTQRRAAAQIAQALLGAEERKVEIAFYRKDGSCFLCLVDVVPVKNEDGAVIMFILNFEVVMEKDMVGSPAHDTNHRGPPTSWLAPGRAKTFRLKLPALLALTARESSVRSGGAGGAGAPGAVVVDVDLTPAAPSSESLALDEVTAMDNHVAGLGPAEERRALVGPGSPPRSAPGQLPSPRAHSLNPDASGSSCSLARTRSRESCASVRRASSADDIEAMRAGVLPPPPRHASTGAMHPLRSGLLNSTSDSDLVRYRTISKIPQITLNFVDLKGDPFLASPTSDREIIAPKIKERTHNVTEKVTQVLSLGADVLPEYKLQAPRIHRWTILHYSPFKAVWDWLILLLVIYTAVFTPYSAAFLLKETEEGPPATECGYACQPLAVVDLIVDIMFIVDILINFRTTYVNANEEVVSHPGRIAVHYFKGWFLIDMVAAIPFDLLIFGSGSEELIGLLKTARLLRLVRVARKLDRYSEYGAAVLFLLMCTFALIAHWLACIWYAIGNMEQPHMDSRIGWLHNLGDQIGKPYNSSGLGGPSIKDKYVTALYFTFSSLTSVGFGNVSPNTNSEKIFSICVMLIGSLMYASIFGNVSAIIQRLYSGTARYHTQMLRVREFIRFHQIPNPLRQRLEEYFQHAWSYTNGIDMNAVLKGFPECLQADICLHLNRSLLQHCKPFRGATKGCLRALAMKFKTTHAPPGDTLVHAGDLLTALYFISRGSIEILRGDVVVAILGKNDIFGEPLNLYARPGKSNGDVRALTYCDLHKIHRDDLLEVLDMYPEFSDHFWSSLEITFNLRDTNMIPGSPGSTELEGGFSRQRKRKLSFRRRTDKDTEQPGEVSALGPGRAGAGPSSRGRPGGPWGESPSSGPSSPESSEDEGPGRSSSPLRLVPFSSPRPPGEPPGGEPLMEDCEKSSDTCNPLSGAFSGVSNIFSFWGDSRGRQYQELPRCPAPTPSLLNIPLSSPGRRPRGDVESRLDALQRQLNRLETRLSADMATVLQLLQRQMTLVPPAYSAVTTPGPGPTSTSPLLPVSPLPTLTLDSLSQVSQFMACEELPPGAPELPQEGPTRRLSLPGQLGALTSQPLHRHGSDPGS

Compound | hERG current change (%, negative = inhibition) at 10uM
COc1ccc(-c2[nH]ncc2/C=N\NC(=O)c2cccs2)cc1OC | -22.6%
CC1CN(S(=O)(=O)c2cccc(C(=O)NCCCn3ccnc3)c2)CC(C)O1.Cl (centres unmarked) | 6.18%
CCn1nnc(-c2ccccc2NC(=O)C(F)(F)F)n1 | -9.9%
Cc1ccn2cc(CCNS(=O)(=O)c3ccc(F)c(C(F)(F)F)c3)nc2c1 | -18.5%
Cc1nn(-c2ccccc2)c(Oc2ccccc2)c1C=O | -6.92%
CCCCOc1ccccc1NC(=O)CSc1nnnn1C(C)(C)C | -21.1%
CCOC(=O)c1sc(NC(=O)CCCn2nc([N+](=O)[O-])c(Cl)c2C)c(C(=O)OCC)c1C | -3.72%
CC12CC[C@H]3[C@@H](CCC4(O)C[C@H](O)CCC34/C=N/NC(=O)c3ccc(O)cc3)C1(O)CCC2C1=CC(=O)OC1 (some centres unmarked) | 15%
Cc1sc(NC(=S)NC(=O)CCc2ccccc2)c(C(N)=O)c1C | 21.6%
NCCCC[C@@H](C(=O)NCCCCCCCCCCC(=O)N1CCNCC1)n1cc(CCCC(=O)O)nn1 | -1.54%
COC(=O)c1ccc(CC(C(=O)c2ccccc2)N(C)C)cc1.Cl (centres unmarked) | 10.3%
O=c1[nH][nH]c(C(F)(F)F)c1C=Nc1ccc(Cl)cc1 | 0.892%
CC(C)(C)n1nc2c(c1NC(=O)Cc1cccs1)CSC2 | 7.14%
COc1ccc(-n2nnnc2SCC(=O)NCCc2ccc(OC)c(OC)c2)cc1 | -14.2%
Cc1cccc(NC(=O)c2ccccn2)c1C | -6.23%
Nc1nonc1-n1nnc(C(=O)N/N=C/c2cccnc2)c1-c1cccs1 | -3.54%
CCNC(=S)NNC(=O)c1csc(C(C)C)c1 | -7.65%
O=C(N/N=C/c1ccc2ncccc2c1)c1cccc([N+](=O)[O-])c1 | 18.5%
COC(=O)c1ccc(CSc2ccc3nnc(-c4ccccn4)n3n2)o1 | -62.8%

Compound | hERG current change (%, negative = inhibition) at 10uM
CCc1ccc(C(=O)/C=C/c2cnn(C)c2C)s1 | -23.3%
CCc1sc(C(=O)N2CCN(c3ccc(F)cc3)CC2)cc1C | -16.3%
Cn1c(=O)c2c([nH]c(=S)n2CCCc2ccccc2)n(C)c1=O | 15.5%
O=C1NC(c2cc(Cl)cc([N+](=O)[O-])c2O)Nc2ccccc21 (centres unmarked) | -1.99%
CC(C)(Oc1ccc(Cl)cc1)C(=O)O/N=C(\N)c1ccncc1 | -13.4%
Cc1ccc(C(=O)CC(C(=O)O)P(=O)(c2ccccc2)c2ccccc2)cc1 (centres unmarked) | 25.1%
Cc1cccc(CN(C)C)c1OC(=O)N(C)C.Cl | -25.9%
O=C(CCC1CCCCC1)NCc1ccncc1 | -3.77%
CCOC(=O)c1ccc(-c2ccc(/C=C(\C#N)C(=O)NCc3cccs3)o2)cc1 | 18%
CCc1nnc(NC(=O)CCc2ccccc2OC)s1 | 12.7%
O=C(CSc1nnc(-c2ccc(F)cc2)n1-c1ccccc1)NCCN1C(=O)CSC1=O | -20.6%
COc1ccc(Cl)cc1NC(=O)CN(C(=O)c1ccco1)C1CCCCC1 | -2.36%
O=[N+]([O-])c1ccc(N2CCN(CC3CCCCC3)CC2)cc1 | -63%
CN1CCN(CC/C=C2/c3ccccc3Sc3ccc(S(=O)(=O)N(C)C)cc32)CC1 | -64.7%
CCOc1ccc2[nH]c(=O)c(CN(Cc3ccccc3OC)C(=O)c3ccccc3)cc2c1 | -14.9%
CSc1ccc2c(c1)C(N1CCN(C)CC1)Cc1ccccc1S2.O=C([O-])/C=C\C(=O)[O-] (centres unmarked) | -65.2%
CCOC(=O)c1ccc(NC(=O)N2CCc3ccccc3C2)cc1 | 1.92%
Cc1ccc(CC(=O)NCCN2CCOCC2)cc1 | 19.2%
O=C(N/N=C/c1ccc(N2CCOCC2)o1)c1cccc(F)c1 | -2.96%

Compound | hERG current change (%, negative = inhibition) at 10uM
CCOC(=O)c1cnc2c(C)cccc2c1NCCCN1CCOCC1 | -72.8%
COc1ccc(C(C)(C)C)cc1S(=O)(=O)N1CCN(C)CC1 | -9.05%
CCOC(=O)CCSc1nc(C)c2cc(OC)ccc2n1 | -19.7%
c1ccc(-c2cn3nc4c(nc3n2)CCCC4)cc1 | -18.9%
COc1ccc(-c2cc(=O)oc3cc(OC(C)C(=O)NCc4ccccn4)ccc23)cc1 (centres unmarked) | -54.8%
CC(C)(C)OC(=O)CNC(=O)c1nc[nH]c1C(=O)NCC(=O)OC(C)(C)C | 3.98%
O=C1CN(C(=O)CNC(=O)c2ccccc2Cl)c2ccccc2N1 | 8.79%
O=C(CC1(O)C(=O)Nc2ccc(Br)cc21)c1ccc2c(c1)OCO2 (centres unmarked) | -12.3%
Cc1c(Cl)cccc1N=c1c([N+](=O)[O-])nn(-c2ccccc2)n1O | -4.05%
COc1ccc(OC)c2c(C)cc(C)nc12 | 1.95%
COc1cc(CN(C)C(C)C(=O)Nc2ccc([N+](=O)[O-])cc2Cl)ccc1OC(F)F (centres unmarked) | -4.87%
Cc1cc(N/N=C2/CCCc3ccccc32)nc2ccccc12 | 43.3%
O=C(O/N=C1\CCCc2ccccc21)c1cccs1 | 15.7%
Br.CC1(C(=O)CSc2n[nH]c(-c3ccccc3Cl)n2)CCC(=O)O1 (centres unmarked) | 6.53%
CC1(C)Cc2cccc(OCC(=O)N3CCN(c4ccc(F)cc4)CC3)c2O1 | -69.5%
COc1ccc(S(=O)(=O)N2CCOCC2)cc1N(C)S(=O)(=O)c1ccc(C)cc1 | 0.666%
CCC(=O)Nc1cc(-c2nn(C)c(=O)c3ccccc23)ccc1N1CCCCC1 | -22.7%
Cc1cc2n(n1)SC(Nc1ccccc1)N2 (centres unmarked) | 1.94%

Reference: PMC4336329 (PLoS ONE, 2015)
